T1: mutated human GLP-2R (human, UniProt O95838 1-553)
T1 chain: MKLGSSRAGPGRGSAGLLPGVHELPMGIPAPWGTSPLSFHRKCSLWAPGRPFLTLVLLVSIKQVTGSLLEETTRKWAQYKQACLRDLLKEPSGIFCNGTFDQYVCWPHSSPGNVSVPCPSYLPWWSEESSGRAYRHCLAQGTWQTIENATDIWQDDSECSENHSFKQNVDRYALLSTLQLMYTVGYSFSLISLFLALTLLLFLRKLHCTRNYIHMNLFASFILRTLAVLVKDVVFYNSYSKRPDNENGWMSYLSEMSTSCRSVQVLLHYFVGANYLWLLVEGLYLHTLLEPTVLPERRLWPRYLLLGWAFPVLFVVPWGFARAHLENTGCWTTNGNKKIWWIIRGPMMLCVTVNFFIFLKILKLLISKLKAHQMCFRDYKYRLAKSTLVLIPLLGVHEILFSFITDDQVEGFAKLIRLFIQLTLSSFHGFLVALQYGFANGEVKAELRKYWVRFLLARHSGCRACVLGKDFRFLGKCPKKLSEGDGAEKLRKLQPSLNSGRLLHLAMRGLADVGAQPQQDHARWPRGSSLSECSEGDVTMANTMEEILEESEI


Experiments:
mutated human GLP-2R [1] = target: T1, mutated human GLP-2R; experiment: cell-based or functional assay
mutated human GLP-2R [2] = target: T1, mutated human GLP-2R; experiment: cell-based or functional assay
[3] = SEC-SLS analysis of mimetibodies (monomer/dimer); assay type: physicochemical; details: purified from HEK 293E/HEK 293 expression

EC50 (nM), cAMP expression assay (mutated human GLP-2R [1]) [nM]	EC50, cAMP expression (mutated human GLP-2R [2]) [nM]	potency in cAMP expression assay, fold less than the corresponding peptide (mutated human GLP-2R [2]) [fold]	Molecule	SEC-SLS association state of mimetibody [3]
5.1	3.8	~4	A2G GLP-2 IgG4 mimetibody (Fc fusion) HGDGSFSDEMNTILDNLAARDFINWLIQTKITDGSGGGSGTLVTVSS[in this place human IgG4 Fc with S228P F234A L235A (EU numbers)]	
			SEQ ID NO: 77: GLP-2 mimetibody with A2G, N16G, L17Q analog (protein, GLP-2 Mimetibody nucleic acid sequence with A2G, N16G, L17Q mutation) HGDGSFSDEMNTILDGQAARDFINWLIQTKITDGSGGGSGTLVTVSS[in this place human IgG4 Fc with S228P F234A L235A (EU numbers)]	monomer
			SEQ ID NO: 75: GLP-2 mimetibody with A2G, L17Q analog (protein, GLP-2 Mimetibody amino acid sequence with A2G, L17Q mutation) HGDGSFSDEMNTILDNQAARDFINWLIQTKITDGSGGGSGTLVTVSS[in this place human IgG4 Fc with S228P F234A L235A (EU numbers)]	monomer and dimer mixture
